In patent US7592316B2, “Peptides as NS3-serine protease inhibitors of hepatitis C virus” (Schering Corporation, priority 2000, dated 2009) one finds Ki data, which are given here for 25 compounds.

The Ki is the dissociation constant of the complex between target and ligand, obtained from inhibition or displacement.

Molecules are shown by their SMILES. *1 amine or outer side, *2 acyl side, *3 side chain or, on linkers, in order; H or OH if unused. Where a SMILES comes first, the peptide text is derived from it. [ ]: non-standard residue; d: D form. The star is where a group is joined. ξ: configuration not given here. Pro(3R,4S-CMe2) = CC1(C)[C@@H]2[C@@H](C(=O)O)NC[C@@H]21; Pro(3S,4R-CMe2) = CC1(C)[C@H]2[C@@H](C(=O)O)NC[C@H]21; Pro(4R-isopentyl) = CC(C)CC[C@H]1CN[C@H](C(=O)O)C1; Nleψ(COCO) = CCCC[C@H](N[*:1])C(=O)C(=O)[*:2]; ξPro(4R-OtBu) = CC(C)(C)O[C@H]1CNC(C(=O)O)C1; Gly(1-Me-cHex) = CC1([C@H](N)C(=O)O)CCCCC1; X50 = O=C(C(=O)[*:2])C(CCCC(F)(F)F)N[*:1]; X54 = O=C(C(=O)[*:2])C(CCC(F)(F)F)N[*:1]; X67 = O=C(C(=O)[*:2])C(CC1CC1(F)F)N[*:1]; X23 = CC(F)(F)CC(N[*:1])C(=O)C(=O)[*:2]; Gly(3-thienyl) = N[C@H](C(=O)O)c1ccsc1; X12 = CCC[C@H](N[*:1])C(=O)C(=O)[*:2]; X32 = O=C(C(=O)[*:2])C(CC1CCC1)N[*:1]; X81 = O=C(C(=O)[*:2])C(CCC(F)F)N[*:1]; X89 = O=C(C(=O)[*:2])C(N[*:1])C1CCCC1; X8 = O=C(C(=O)[*:2])C(CC1CC1)N[*:1]; Gly(cPent) = N[C@H](C(=O)O)C1CCCC1; X6 = C=CCCC(N[*:1])C(=O)C(=O)[*:2]; Igl = N[C@H](C(=O)O)C1Cc2ccccc2C1; X4 = CCCCC(N[*:1])C(=O)C(=O)[*:2]; Hyp = O=C(O)[C@@H]1C[C@@H](O)CN1; X2 = CCCC(N[*:1])C(=O)C(=O)[*:2]; Chg = N[C@H](C(=O)O)C1CCCCC1; Phg = N[C@H](C(=O)O)c1ccccc1; Tle = CC(C)(C)[C@H](N)C(=O)O; X35 = O=C(CN[*:1])C(=O)[*:2]; ξPhg = NC(C(=O)O)c1ccccc1; Boc = CC(C)(C)OC(=O)*; tBu = CC(C)(C)*

In the first test the target is HCV NS3/NS4A protease (strain 1a) (Hepatitis C virus genotype 1a, UniProt P27958). Kind of test: biochemical. The settings on record: Compounds prepared by Solid Phase Synthesis, Table 3; read-out: Ki* CLASS.
Consider `C[C@H](NC(=O)C(=O)C(CC1CC1)NC(=O)C1C[C@@H](OC(C)(C)C)CN1C(=O)[C@@H](NC(=O)OC(C)(C)C)C1CCCCC1)C(=O)N[C@H](C(N)=O)c1ccccc1` (stereo partly drawn) (Boc-[Chg][ξPro(4R-OtBu)][X8]A[Phg]-NH2), for which the Ki is 101 to 1000 nM. Take `CC(C)(C)OC(=O)N[C@H](C(=O)N1C[C@H](OC(C)(C)C)CC1C(=O)NC(CC1CC1)C(=O)C(=O)NCC(=O)N[C@H](C(N)=O)c1ccccc1)C1CCCCC1` (stereo partly drawn) (Boc-[Chg][ξPro(4R-OtBu)][X8]G[Phg]-NH2): the Ki lay within 101 to 1000 nM. In the case of `CCCCC(NC(=O)[C@@H]1C[C@@H](OC(C)(C)C)CN1C(=O)[C@@H](NC(=O)OC(C)(C)C)c1ccccc1)C(=O)C(=O)NCC(=O)N[C@H](C(N)=O)c1ccccc1` (stereo partly shown) (Boc-[Phg][Hyp](tBu)[X4]G[Phg]-NH2), the Ki is above 1000 nM. The same measure, in the same setting: with `CCCC(NC(=O)[C@@H]1C[C@@H](OC(C)(C)C)CN1C(=O)[C@@H](NC(=O)OC(C)(C)C)C(C)(C)C)C(=O)C(=O)NCC(=O)N[C@H](C(N)=O)c1ccccc1` (stereo partly shown) (Boc-[Tle][Hyp](tBu)[X2]G[Phg]-NH2) the figure was 101 to 1000 nM; with `CCCCC(NC(=O)[C@@H]1C[C@@H](OC(C)(C)C)CN1C(=O)[C@@H](NC(=O)OC(C)(C)C)C(C)(C)C)C(=O)C(=O)NCC(=O)N[C@H](C(N)=O)c1ccccc1` (stereo partly shown) (Boc-[Tle][Hyp](tBu)[X4]G[Phg]-NH2), 101 to 1000 nM.

Still in this test, the particulars now being: Table 5; HCV NS3/NS4A protease, spectrophotometric assay, 30° C., pH 6.5; read-out: Ki* Range.
For `CCCC(NC(=O)[C@@H]1[C@@H]2[C@H](CN1C(=O)[C@@H](NC(=O)OC(C)(C)C)C1CCCC1)C2(C)C)C(=O)C(=O)NCC(=O)N[C@H](C(=O)N(C)C)c1ccccc1` (stereo partly drawn) (Boc-[Gly(cPent)][Pro(3R,4S-CMe2)][X2]G[Phg]-NMe2), the Ki was 1 to 100 nM. For the compound `C=CCCC(NC(=O)[C@@H]1[C@@H]2[C@H](CN1C(=O)[C@@H](NC(=O)OC(C)(C)C)C1CCCC1)C2(C)C)C(=O)C(=O)NCC(=O)N[C@H](C(=O)N(C)C)c1ccccc1` (stereo partly drawn) (Boc-[Gly(cPent)][Pro(3R,4S-CMe2)][X6]G[Phg]-NMe2), the Ki fell in the range of 1 to 100 nM. On to `CN(C)C(=O)[C@@H](NC(=O)CNC(=O)C(=O)C(CC1CC1)NC(=O)[C@@H]1[C@H]2[C@@H](CN1C(=O)[C@@H](NC(=O)OC(C)(C)C)C1CCCC1)C2(C)C)c1ccccc1` (stereo partly drawn) (Boc-[Gly(cPent)][Pro(3S,4R-CMe2)][X8]G[Phg]-NMe2), for which the Ki fell in the range of 1 to 100 nM. Regarding `CCCC(NC(=O)[C@@H]1[C@H]2[C@@H](CN1C(=O)[C@@H](NC(=O)OC(C)(C)C)C1Cc3ccccc3C1)C2(C)C)C(=O)C(=O)NCC(=O)N[C@H](C(=O)N(C)C)c1ccccc1` (stereo partly drawn) (Boc-[Igl][Pro(3S,4R-CMe2)][X2]G[Phg]-NMe2), the Ki lay in the range of 1 to 100 nM. On to `CN(C)C(=O)[C@@H](NC(=O)CNC(=O)C(=O)CNC(=O)[C@@H]1[C@@H]2[C@H](CN1C(=O)[C@@H](NC(=O)OC(C)(C)C)C(C)(C)C)C2(C)C)c1ccccc1` (Boc-[Tle][Pro(3R,4S-CMe2)][X35]G[Phg]-NMe2), for which the Ki was above 1000 nM. With `CCCCC(NC(=O)[C@@H]1[C@H]2[C@@H](CN1C(=O)[C@@H](NC(=O)OC(C)(C)C)C(C)(C)C)C2(C)C)C(=O)C(=O)NCC(=O)N[C@H](C(=O)N(C)C)c1ccsc1` (stereo partly drawn) (Boc-[Tle][Pro(3S,4R-CMe2)][X4]G[Gly(3-thienyl)]-NMe2), the Ki fell in the range of 1 to 100 nM. For the compound `CCCCC(NC(=O)[C@@H]1[C@H]2[C@@H](CN1C(=O)[C@@H](NC(=O)OC(C)(C)C)C(C)(C)C)C2(C)C)C(=O)C(=O)NCC(=O)N[C@H](C(=O)N(C)C)C1Cc2ccccc2C1` (stereo partly drawn) (Boc-[Tle][Pro(3S,4R-CMe2)][X4]G[Igl]-NMe2), the inhibitory constant (Ki) lay within 101 to 1000 nM. Turning to `CN(C)C(=O)[C@@H](NC(=O)CNC(=O)C(=O)C(CC1CCC1)NC(=O)[C@@H]1[C@H]2[C@@H](CN1C(=O)[C@@H](NC(=O)OC(C)(C)C)C(C)(C)C)C2(C)C)c1ccccc1` (stereo partly drawn) (Boc-[Tle][Pro(3S,4R-CMe2)][X32]G[Phg]-NMe2), the Ki was in the range of 1 to 100 nM. As to `CCCC[C@H](NC(=O)[C@@H]1C[C@@H](CCC(C)C)CN1C(=O)[C@@H](NC(=O)OC(C)(C)C)C(C)(C)C)C(=O)C(=O)NCC(=O)NC(C(=O)N(C)C)c1ccccc1` (stereo partly drawn) (Boc-[Tle][Pro(4R-isopentyl)][Nleψ(COCO)]G[ξPhg]-NMe2), the Ki was 101 to 1000 nM. As to `CCCC(NC(=O)[C@@H]1C[C@@H](CCC(C)C)CN1C(=O)[C@@H](NC(=O)OC(C)(C)C)C(C)(C)C)C(=O)C(=O)NCC(=O)NC(C(=O)N(C)C)c1ccccc1` (stereo partly drawn) (Boc-[Tle][Pro(4R-isopentyl)][X2]G[ξPhg]-NMe2), the inhibition constant Ki fell in the range of 101 to 1000 nM. Turning to `CCCCC(NC(=O)[C@@H]1C[C@@H](CCC(C)C)CN1C(=O)[C@@H](NC(=O)OC(C)(C)C)C(C)(C)C)C(=O)C(=O)NCC(=O)NC(C(=O)N(C)C)c1ccccc1` (stereo partly drawn) (Boc-[Tle][Pro(4R-isopentyl)][X4]G[ξPhg]-NMe2), the inhibition constant Ki was 101 to 1000 nM. Same read-out and setting: with `CCC[C@H](NC(=O)[C@@H]1C[C@@H](CCC(C)C)CN1C(=O)[C@@H](NC(=O)OC(C)(C)C)C(C)(C)C)C(=O)C(=O)NCC(=O)NC(C(=O)N(C)C)c1ccccc1` (stereo partly drawn) (Boc-[Tle][Pro(4R-isopentyl)][X12]G[ξPhg]-NMe2) the figure was 1 to 100 nM.

The same test, now with this note: Table 6; HCV NS3/NS4A protease, 30° C., pH 6.5; read-out: Ki*.
Turning to `CN(C)C(=O)[C@@H](NC(=O)CNC(=O)C(=O)C(CC1CCC1)NC(=O)[C@@H]1[C@@H]2[C@H](CN1C(=O)[C@@H](NC(=O)OC(C)(C)C)C1(C)CCCCC1)C2(C)C)c1ccccc1` (stereo partly drawn) (Boc-[Gly(1-Me-cHex)][Pro(3R,4S-CMe2)][X32]G[Phg]-NMe2), the inhibition constant (Ki) was in the range of 1 to 100 nM. Consider `CN(C)C(=O)[C@@H](NC(=O)CNC(=O)C(=O)C(CCC(F)(F)F)NC(=O)[C@@H]1[C@@H]2[C@H](CN1C(=O)[C@@H](NC(=O)OC(C)(C)C)C1Cc3ccccc3C1)C2(C)C)c1ccccc1` (stereo partly drawn) (Boc-[Igl][Pro(3R,4S-CMe2)][X54]G[Phg]-NMe2), for which the Ki was in the range of 1 to 100 nM.

For `CN(C)C(=O)C(NC(=O)CNC(=O)C(=O)C(CC(C)(F)F)NC(=O)[C@@H]1[C@@H]2[C@H](CN1C(=O)[C@@H](NC(=O)OC(C)(C)C)C(C)(C)C)C2(C)C)c1ccccc1` (stereo partly drawn) (Boc-[Tle][Pro(3R,4S-CMe2)][X23]G[ξPhg]-NMe2), the Ki was in the range of 101 to 1000 nM. As to `CN(C)C(=O)[C@@H](NC(=O)CNC(=O)C(=O)C(CCCC(F)(F)F)NC(=O)[C@@H]1[C@@H]2[C@H](CN1C(=O)[C@@H](NC(=O)OC(C)(C)C)C(C)(C)C)C2(C)C)c1ccccc1` (stereo partly drawn) (Boc-[Tle][Pro(3R,4S-CMe2)][X50]G[Phg]-NMe2), the inhibition constant (Ki) lay within 1 to 100 nM.

Consider `CN(C)C(=O)[C@@H](NC(=O)CNC(=O)C(=O)C(CCC(F)(F)F)NC(=O)[C@@H]1[C@@H]2[C@H](CN1C(=O)[C@@H](NC(=O)OC(C)(C)C)C(C)(C)C)C2(C)C)c1ccccc1` (stereo partly drawn) (Boc-[Tle][Pro(3R,4S-CMe2)][X54]G[Phg]-NMe2), for which the Ki was in the range of 1 to 100 nM.

As for `CN(C)C(=O)C(NC(=O)CNC(=O)C(=O)C(CC1CC1(F)F)NC(=O)[C@@H]1[C@@H]2[C@H](CN1C(=O)[C@@H](NC(=O)OC(C)(C)C)C(C)(C)C)C2(C)C)c1ccccc1` (stereo partly drawn) (Boc-[Tle][Pro(3R,4S-CMe2)][X67]G[ξPhg]-NMe2), the Ki was in the range of 1 to 100 nM. For `CN(C)C(=O)[C@@H](NC(=O)CNC(=O)C(=O)C(CCC(F)F)NC(=O)[C@@H]1[C@@H]2[C@H](CN1C(=O)[C@@H](NC(=O)OC(C)(C)C)C(C)(C)C)C2(C)C)c1ccccc1` (stereo partly drawn) (Boc-[Tle][Pro(3R,4S-CMe2)][X81]G[Phg]-NMe2), the Ki was in the range of 1 to 100 nM. Take `CN(C)C(=O)[C@@H](NC(=O)CNC(=O)C(=O)C(NC(=O)[C@@H]1[C@@H]2[C@H](CN1C(=O)[C@@H](NC(=O)OC(C)(C)C)C(C)(C)C)C2(C)C)C1CCCC1)c1ccccc1` (stereo partly drawn) (Boc-[Tle][Pro(3R,4S-CMe2)][X89]G[Phg]-NMe2): the Ki lay in the range of 1 to 100 nM.
